Source: publication PMC4336329 (PLoS ONE, 2015)
Among all 310,000 compounds or so, about 2,200 (0.71%) showed an effect of 50% or more. The effect is printed as a negative number. This is one part of the list.

Each molecule was assayed against human ether-à-go-go-related gene (hERG) potassium channel (human, UniProt Q12809) (assay: primary screen, population patch clamp on CHO cells stably expressing hERG).
human ether-à-go-go-related gene (hERG) potassium channel, sequence (Q12809 whole entry, looked up): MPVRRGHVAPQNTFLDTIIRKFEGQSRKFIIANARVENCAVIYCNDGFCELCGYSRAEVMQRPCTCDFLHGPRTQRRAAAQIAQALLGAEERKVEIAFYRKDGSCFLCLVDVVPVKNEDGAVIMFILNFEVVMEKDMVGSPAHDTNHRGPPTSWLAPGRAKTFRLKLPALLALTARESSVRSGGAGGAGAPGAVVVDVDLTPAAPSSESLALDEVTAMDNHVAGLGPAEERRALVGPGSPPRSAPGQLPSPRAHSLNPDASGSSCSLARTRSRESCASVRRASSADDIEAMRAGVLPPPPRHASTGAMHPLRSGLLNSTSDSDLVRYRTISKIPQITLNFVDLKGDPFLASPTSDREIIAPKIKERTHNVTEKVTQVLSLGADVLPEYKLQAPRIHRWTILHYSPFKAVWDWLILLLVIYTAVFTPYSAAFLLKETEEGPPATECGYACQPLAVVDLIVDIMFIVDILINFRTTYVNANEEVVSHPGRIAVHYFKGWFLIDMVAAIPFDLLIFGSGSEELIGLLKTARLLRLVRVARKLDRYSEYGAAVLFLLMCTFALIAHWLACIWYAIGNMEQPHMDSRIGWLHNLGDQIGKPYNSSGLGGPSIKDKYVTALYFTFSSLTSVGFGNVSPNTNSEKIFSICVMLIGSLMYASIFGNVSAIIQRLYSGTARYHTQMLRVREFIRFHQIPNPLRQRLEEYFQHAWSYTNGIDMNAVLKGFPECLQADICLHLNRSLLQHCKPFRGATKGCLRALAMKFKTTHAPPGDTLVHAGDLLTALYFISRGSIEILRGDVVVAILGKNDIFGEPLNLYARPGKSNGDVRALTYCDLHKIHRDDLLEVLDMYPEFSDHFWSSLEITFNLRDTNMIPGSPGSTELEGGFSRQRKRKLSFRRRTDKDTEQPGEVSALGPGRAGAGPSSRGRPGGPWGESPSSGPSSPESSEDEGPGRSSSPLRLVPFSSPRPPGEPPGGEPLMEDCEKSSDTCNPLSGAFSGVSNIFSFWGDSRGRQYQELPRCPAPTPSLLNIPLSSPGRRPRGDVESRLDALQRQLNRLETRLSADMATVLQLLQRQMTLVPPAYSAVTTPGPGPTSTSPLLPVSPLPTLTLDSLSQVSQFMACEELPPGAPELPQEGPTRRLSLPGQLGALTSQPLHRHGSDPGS

Structure (SMILES)	hERG current change (%, negative = inhibition) at 1uM
CCOc1cc(NC(=S)NCCCN2CCOCC2)c(OCC)cc1NC(=O)C1CC1	6.18%
COc1ccc(CNC(=O)CSc2nnc(-c3cccnc3)n2N)cc1	7.27%
COC(=O)[C@@H]1C[C@@]2(O)[C@@H](O)[C@@H](O)[C@@H](O)C[C@H]2N1Cc1cc(OC)cc(OC)c1	16.9%
Oc1c(Cl)cc(Cl)cc1C=Nc1cc(C(F)(F)F)ccc1N1CCc2ccccc2C1	8.02%
COc1cccc(CC2(CO)CCCN(Cc3ccc(CN4CCCCC4)s3)C2)c1 (stereo not shown)	0.717%
CCOC(=O)c1ccc(COC(=O)CNS(=O)(=O)c2ccccc2)cc1	16.8%
COc1ccc(S(=O)CC(=O)Nc2ccccc2Cl)cc1 (stereo not shown)	13.4%
CC(Cc1ccccc1)C(=O)N(C)Cc1cccnc1 (stereo not shown)	15.3%
Cc1ccc(N=C2C(=O)Nc3ccccc32)c(C)c1	13%
CCN(CC)CCN1C(=O)c2ccccc2NC1c1ccc(N(C)C)cc1 (stereo not shown)	-13.4%
COc1ccc(C)cc1NC(=O)C(OC(=O)Cn1cnc2c1c(=O)n(C)c(=O)n2C)c1ccccc1 (stereo not shown)	13.6%
CCOc1ccc(NC(=O)CCn2nc(C)c(S(=O)(=O)N3CCCCC3)c2C)cc1	5.33%
CN1CCN(c2cc(=O)n(-c3ccc(Cl)cc3)c(=O)[nH]2)CC1	3.27%
O=C(O)c1ccc(/C=N/O)cc1	2.62%
Cc1ccc(C(=O)/C=C/c2ccc(-c3ccccc3[N+](=O)[O-])o2)cc1	12.8%
CS(=O)(=O)c1ccc2nc(NC(=O)c3cccc(NS(=O)(=O)c4ccc(F)c(F)c4)c3)sc2c1	1.19%
CCOC(=O)c1c(C)n(OC)c2ccc3c(no[n+]3[O-])c12	7.58%
Cc1ccc(C2(C)NC(=O)N(CC(=O)NCc3cccc(Cl)c3)C2=O)cc1 (stereo not shown)	10.7%
COCCNC(=S)N(CCc1c(C)[nH]c2ccc(C)cc12)Cc1cccnc1	9.67%
CCN(C(=O)COC(=O)c1cccc(S(=O)(=O)N(CC)CC)c1)C1CCS(=O)(=O)C1 (stereo not shown)	17.4%
C=CCOn1c(=O)c(C)[n+]([O-])c2ccccc21	8.03%
CC(OC(=O)Cn1[nH]c(=O)c2ccccc2c1=O)C(=O)Nc1ccccc1[N+](=O)[O-] (stereo not shown)	9.65%

Structure (SMILES)	hERG current change (%, negative = inhibition) at 1uM
O=C(Cn1nnc2ccccc21)c1ccc([N+](=O)[O-])cc1	0.57%
CCOc1ccc(C(=O)N2CCN(c3cnn(-c4ccccc4)c(=O)c3Cl)CC2)cc1	-45.9%
O=C1C=C(c2ccccc2)C(=O)N1Nc1ccccc1	-41.1%
O=C(c1cc(F)c(F)cc1Cl)N1CCCCC1	-8.21%
Cc1ccc(O)c(Nc2ncnc3ccc([N+](=O)[O-])cc23)c1.Cl	17.9%
O=C(Nc1ccc(Cl)cc1)C1CCN(C(=O)NC2CCCCC2)CC1	-0.257%
O=C(C1CCN(c2ccc(N3CCOCC3)nn2)CC1)N1CCc2ccccc2C1	-6.52%
O=C(Nc1ccccc1N1CCCC1)c1cccc(F)c1	10.3%
CS(=O)(=O)N(CCc1ccccc1)CC(=O)N1CCN(c2ccccc2F)CC1	5.48%
COc1cc(/C=C(\C#N)C(=O)N2CCc3ccccc32)ccc1O	-2.09%
CC1=CC2=NC(=O)CC(C)(C(=O)N(CC(=O)NC(C)(C)C)Cc3ccccc3)N2C=C1 (stereo not shown)	12.8%
Nn1c(SCC(=O)Nc2ccccc2F)nnc1-c1cccnc1	23%
CC(=Nc1ccc(C)c(C)c1)C1=C(O)CCC1=O	6.05%
CCOc1ccc2nc(NCCNC(=O)C3CC3)c(C)cc2c1	-38.7%
COc1cc(C(=O)Nc2ccc(S(=O)(=O)NC(C)C)cc2)cc(OC)c1OC	-7.86%
CN(Cc1ccc(Cl)cc1Cl)C(=O)CCNC(=O)c1ccco1	9.67%
CCCn1nnc(NC(=O)c2cc(Br)ccc2OC)n1	-11.5%
Cc1cc(C)cc(SCc2noc(C(=O)NCC3CC3)c2C(=O)NCC2CC2)c1	5.22%
COc1ccc(S(=O)(=O)N(CC(=O)NCc2cccnc2)C2CCCCC2)cc1OC	9.37%
Cc1ccc(/C=c2/sc3n(c2=O)CCCN=3)o1	-1.24%
O=[N+]([O-])c1cccc(-c2nc(-c3cccs3)c(-c3cccs3)[nH]2)c1	8.56%
CCCCN(C(=O)c1cc2c(s1)CCC2)c1c(N)n(CC(C)C)c(=O)[nH]c1=O	9.04%

Structure (SMILES)	hERG current change (%, negative = inhibition) at 1uM
O=C1C2CCCN2C(c2cccnc2)N1c1ccc(Cl)c(Cl)c1 (stereo not shown)	10.4%
CN1C(=O)SC(Nc2cccc3ccccc23)C1=O (stereo not shown)	3.64%
COCCN(C(=O)CNC(=O)c1ccco1)C(C(=O)NC1CCCCC1)c1cccs1 (stereo not shown)	15.7%
COc1ccccc1N1CCN(/N=C\c2ccc(C)o2)CC1	9.09%
COc1cc2c(cc1OC)C(C(=O)NCc1ccco1)C(c1cccs1)N(C)C2=O (stereo not shown)	6.75%
Cc1ccc(NC(=S)N2CCCCCC2)cc1	11.4%
CC1CCCCC1NC(=O)C1CCC(CNS(=O)(=O)c2cccc3cccnc23)CC1 (stereo not shown)	22.4%
CN(C)S(=O)(=O)c1ccc2c(c1)/C(=C/c1cc3c([nH]1)CCCC3)C(=O)N2	5.89%
CCOCCc1nnc(NC(=O)CCS(=O)(=O)c2ccccc2)s1	17.4%
Cc1cc(Cl)c(S(=O)(=O)NCC2CCCO2)cc1OCC(N)=O (stereo not shown)	14.3%
CSc1ccccc1NC(=O)CCn1c(=O)oc2ccccc21	8.53%
N#CC1=C(N)OC2=C(CN(Cc3ccccc3)C/C2=C\c2cccnc2)C1c1cccnc1 (stereo not shown)	4.49%
CCN1CCC2(CC1)N=C(c1ccc(F)cc1)C(=S)N2C(=O)c1ccc(C)cc1	6.46%
COc1ccc(C)c2sc(NNC(=O)COc3ccccc3)nc12	-4.35%
Clc1ccc(C(c2nnnn2C2CCCC2)N2CCN(Cc3ccncc3)CC2)cc1 (stereo not shown)	-23.1%
CNC(=O)C(=O)NCC1OCCN1S(=O)(=O)c1ccc(C)cc1 (stereo not shown)	11.4%
CC(C)c1ccc(NC(=O)COc2ccccn2)cc1	8.95%
Cc1ccccc1NC(=O)c1cccc(NC(=O)CCC(=O)O)c1	11%
O=C(NCCc1ccccc1)C1CCC(=O)N(Cc2ccc(Cl)cc2)C1 (stereo not shown)	5.85%
C=CCn1cccc(C(=O)Nc2ccc(SC)cc2)c1=O	9.2%
Cn1ncc(Cl)c1C(=O)N1CCN(S(=O)(=O)c2cccs2)CC1	7.57%
CCC(=O)Nc1ccc2c(c1)C(=O)c1ccccc1C2=O	1.44%

Structure (SMILES)	hERG current change (%, negative = inhibition) at 1uM
CCOc1ccc(CN2CCN(C(=O)c3ccco3)CC2)cc1.O=C(O)C(=O)O	2.77%
O=C(CC(C(=O)O)c1ccccc1)c1cccs1 (stereo not shown)	8.52%
COCCN(CCOC)C(=O)c1cc2sc3ccccc3c2s1	-32%
COc1ccc(CCNC(=O)c2cccnc2SC)cc1	7.76%
O=S(=O)(c1ccc(F)cc1)N1CCN(CC(O)COCc2cccs2)CC1 (stereo not shown)	-5.83%
CCNC(=O)C(=O)Nc1cc2c3c(c1)CCN3C(=O)CC2	12.2%
Cc1cccc(NC(=O)CCc2c(C)nn(-c3ccc(N4CCOCC4)nn3)c2C)c1	11%
Cn1cccc1C(=O)NS(=O)(=O)c1ccccc1Cl	9.04%
O=C(Nc1cccc(Cl)c1)c1cc(S(=O)(=O)N2CCOCC2)cs1	4.92%
CC(=O)N1CCC2(CC1)CC(=O)c1cc(OCC(=O)N3CCOCC3)ccc1O2	-0.507%
NC(=O)c1ccc(NC(=O)COC(=O)C2(c3ccccc3F)CCCC2)cc1	8.88%
Cc1cc(C)c2[nH]c(=O)c(CN(Cc3cccnc3)C(=S)NCCCN(C)C)cc2c1	6.73%
Cc1nc2c(sc3nc4c(cc32)COC(C)(C)C4)c(=O)o1	-6.36%
CCn1c(C)nc2cc(C(=O)NNC(=S)Nc3ccc(C)cc3)ccc21	12.6%
O=C1Nc2cc(C(=O)NCCCN3CCOCC3)ccc2S/C1=C/c1ccccc1F	-2.65%
Cc1nn(C)c(C)c1/C=C1/CC2C3CC=C4CC(O)CCC4(C)C3CCC2(C)C1=O (stereo not shown)	-0.68%
CCC(C(=O)NCc1ccco1)N(C(=O)CNS(=O)(=O)c1ccccc1)c1ccc(F)cc1 (stereo not shown)	8.08%
COc1ccc(N2CCN(Cc3cc(OC)c(O)c([N+](=O)[O-])c3)CC2)cc1	8.51%
Cc1cc(C(=O)CSc2nnc(Nc3ccccc3)s2)c(C)n1CC1CCCO1 (stereo not shown)	-9.24%
COc1ccc2nc(C(F)(F)Cl)c(C#N)c(N)c2c1	10.9%
Cc1cc(C)c(C#N)c(Nc2cccc(C)c2C)n1	14.9%
O=S(=O)(c1cccc(-c2nc3n(n2)Cc2ccccc2-3)c1)N1CCCC1	4.19%
